Test results reported in the supplement of paper PMC11417369.
± gives the standard deviation of the averaged measurements. The list shows a part of the results.

test system: PfAP2-EXP AP2 domain (GST-tagged); assay: gcPBM binding intensity (ln(normalized median fluorescence intensity)); higher = stronger DNA binding
Procedure, shortened: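 Plasmodium falciparum DNA-binding domains carrying a GST tag were expressed in E. coli and applied for 1 h, at about 25 μg on average, to an Agilent 4 × 180k array. The array held primer-extended double-stranded 36-bp intergenic genomic probes together with negative controls, and binding took place in 1× PBS with 1% milk, 0.2 mg/ml BSA, 0.5% salmon testes DNA and 0.03% Triton X-100. An Alexa488 anti-GST antibody detected bound protein, and the array was scanned at 488 nm. Binding intensity is taken as the highest Masliner-normalised natural-log median intensity across replicate spots of either probe orientation.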

Sequence | gcPBM binding intensity (ln)
TTTTTATTTTCATATGTGCACTTATATATATATATA | 10.1 ± 0.27
TTTTTATATAAGAAAAAATTATAACAATTTGTTAAT [XGTACX_negctrl_site422] | 7.89 ± 0.56
TACAAAAATGTAGTCACACATATGTATACTTTTATG [CACACA_site5607] | 8.41 ± 0.42
AGTAATAATATAATTTGTACATATATATATTATAAA [XGTACX_site7138] | 8.33 ± 0.35
AGTTTTATGTAGTGTTGTACTTTATACAAATATATA [XGTACX_site990] | 8.7 ± 0.35
TTTCTAATTTATATCACACACATATATAAATAGTAA [CACACA_site6156] | 8.39 ± 0.35
ATATATATAATTTAAAGTACATATTTAAGAATGAAA [XGTACX_site2238] | 8.43 ± 0.23
TTTCTAAATAATATACACAAAAAAATAAAACACTAA [TGCATGCA_negctrl_site43] | 8.65 ± 0.4
TGAAAAGATAAAAAATGTACATATATATTATATATA [XGTACX_site5678] | 8.54 ± 0.3
ATACACAATTATTTTCCTATTATGCAAGCAAATTTA [CACACA_negctrl_site1176] | 8.52 ± 0.34
GTTTAACTGTTTTATACACACAATGTAGACAATAAA [CACACA_site8967] | 8.69 ± 0.43
ACTTGATTACACAACCACAAGTAATTGAAATTATTT [XGTACX_negctrl_site297] | 8.62 ± 0.33
TAAATACATTGACACACACACAAATATGTACATACA [CACACA_site7371] | 8.88 ± 0.34
CACTGTAAATAGAAAGTGCAAAAATTGTAAATAAAA [GTGCAC_site9980] | 8.87 ± 0.25
GTACAAAAAAAGTGTACACAAAGTAAGACTTTAATT [CACACA_site5068] | 8.89 ± 0.33
TATCATGTGCGTGCGTGTACTTAACACACATAATAT [XGTACX_site2404] | 8.52 ± 0.2
TTATATGTTTCTTCACGTACGTATAAAAATGAACTT [XGTACX_site1764] | 8.77 ± 0.38
TATTTTTATAAAAACTGTACATAATAAATAAAAATA [XGTACX_site4743] | 8.9 ± 0.45
AATCAAAGTAATTTAACACACAATTTTAATACTGTT [CACACA_site7169] | 8.24 ± 0.58
ATATTGACAAATATTACACACATATATATATATATA [CACACA_site4079] | 9.95 ± 0.38
TCATTTATTTTAAGGTGTACCGTTTAAAATCACAAA [XGTACX_site3243] | 8.4 ± 0.4
TTGTTCATTATGCACAGTACATAAAAAGTAAAAAAA [XGTACX_site2403] | 8.83 ± 0.35
TTTTTTTGCGCGGGAAGAATAAAATTTATAGAATAT [TGCATGCA_negctrl_site306] | 8.74 ± 0.5

Sequence | gcPBM binding intensity (ln)
CAGACATTAATAAGTAGTACACAATAATTGACTAGG [XGTACX_site854] | 8.8 ± 0.15
AATTTACACGTACGTGTACACACAAAAATATGTTTT [CACACA_site8242] | 9.02 ± 0.29
AATGTTTAATATAACGCATGCCTTAATATAGAATGC [TGCATGCA_site463] | 8.83 ± 0.37
TATATATGTAGACGTTGTACTTTTTTGTAAGTTTAA [XGTACX_site5638] | 8.53 ± 0.42
CATGACATATCCTGTAGTACAACGTATATATAAGAT [XGTACX_site2577] | 8.78 ± 0.43
AAAATAAAATCATAAAGTACAAAAAGAAAATAAAAA [XGTACX_site7376] | 8.74 ± 0.64
TGTGTCAAGTTTAATAAACGCATATAATATATATGA [CACACA_negctrl_site607] | 8.43 ± 0.46
TTTAAATTTTTATATTGTACTTTATTTATTTATTTA [XGTACX_site869] | 8.48 ± 0.35
ATGTTTAATTAAATATGTACTTATTATATTATATGT [XGTACX_site8137] | 8.42 ± 0.3
TTTAATTTTTATATAACACACATATTGTAATTATGT [CACACA_site4566] | 8.38 ± 0.38
AGGAATCTACATATATGTACATATATTGATATATTT [XGTACX_site137] | 8.49 ± 0.32
TCAATAAATATACATACATGCATACATACATACATA [TGCATGCA_site197] | 8.72 ± 0.47
GAACATTTATTGTGTGTGCACAATTCTTTTTTAACC [GTGCAC_site9697] | 8.63 ± 0.19
TGTGTTAATATGAATTTAAACATAAATAAATAAATA [CACACA_negctrl_site1589] | 8.27 ± 0.39
AATTTTCAATAGTATACACACAATTATATATATATA [CACACA_site1116] | 9.74 ± 0.54
TCTTTTCTCGGAAGGGTGCAAGGAATTAATGAAATA [GTGCAC_site9706] | 8.845 ± 0.064
ATATATATATGTTAGGTGCATATATATTTTGTGGAT [GTGCAC_site9964] | 9.835 ± 0.021
ATAAAGATAATATATGCACACATATAAATATATAAA [CACACA_site9153] | 8.33 ± 0.26
ATAAAAACTACATTCACACAAAAAAAAATCTACAAA [CACACA_site6109] | 8.39 ± 0.42
AATAATATTAATAAAAGTACATGTGTAATATATATA [XGTACX_site5922] | 9.15 ± 0.3
ATATATATAATATATTGTACATATAATATATATATA [XGTACX_site4792] | 9.24 ± 0.042
ACATCTAGGCTTATTTTATGATACATGTGAATATAT [TGCATGCA_negctrl_site325] | 8.52 ± 0.33
GTTTTTGAGTAGTACACACACAATAAGGATGGATTC [CACACA_site3192] | 8.89 ± 0.4

Sequence | gcPBM binding intensity (ln)
ACATAACTTATATATACACACAATACAAATATATAT [CACACA_site2774] | 8.72 ± 0.34
CTTTTTTTTTTGGGGGTGCATGCAAGACATATATTT [GTGCAC_site9660] | 10.51 ± 0.028
ACTAAAAGGCTTAAATGTACATATTATATATATATA [XGTACX_site5897] | 9.83 ± 0.11
ATAATTTCTATTTCACAAAAAAAAAAAAAAAAAAAA [CACACA_negctrl_site1012] | 7.93 ± 0.38
GATATGATTATGTGATGGTGTTTTTGATAGATATTT [CACACA_negctrl_site1445] | 8.62 ± 0.5
GAATAATTAAAAGGTAGTACAAAGGTTATCAAAAGG [XGTACX_site8496] | 8.93 ± 0.26
AGAAAACCGAAAGAGACACACAACATGTCGATTTAG [CACACA_site3764] | 8.74 ± 0.53
TTGTTCTTTTGAAAGGTGCAAAAGAAAAATAATTAA | 8.945 ± 0.007
ACGAAGTATATGAATACACACATATTTTTAATGAAA [CACACA_site4070] | 8.32 ± 0.27
TTTTTAATCAGAAATATTTATTAAAGAATTTTATAG [GTGCAC_negctrl_site725] | 7.81 ± 0.47
ATATACATAATTTGGAGTACAATATCATATAAATAT [XGTACX_site6334] | 8.43 ± 0.37
AGTAAATTTGATGGTCGTACAAAAAAAAAGTAGGAC [XGTACX_site2600] | 9.17 ± 0.4
AATGTACAAATACGTACACACATATATATATATATA [CACACA_site1542] | 10.1 ± 0.42
GTATAAAATATTTTATGTACATAATATATATATATA [XGTACX_site2489] | 9.78 ± 0.18
AAATAAAGGAAATGTATATCAACATTAAAATAAGGC [CACACA_negctrl_site441] | 8.95 ± 0.38
TATATGTATGTTTGTGTGCACACATAAATATTATAT | 8.76 ± 0.13
TTTTACAATAACAATACACACTATAATATGTAAATA [CACACA_site6772] | 8.36 ± 0.099
CATTTAAAATTTGTTTGTACATATATATATATATAT [XGTACX_site6729] | 10.2 ± 0.26
ATATATATATATATATGTACTTATGTCATCATTAAA [XGTACX_site5316] | 10.3 ± 0.35
TAGTATAATATGAACACACACACACCGACAAAAAAA [CACACA_site5151] | 8.87 ± 0.58
ATATAATTTATATATTCACACAAGGAATACTTTTAT [CACACA_site5506] | 8.24 ± 0.33
AATTGAAAAAGAAATTGTACATTTTATTTTTATTAT [XGTACX_site1973] | 8.26 ± 0.39
ACTATACAGTTATACACACACATATATCTATAATAT [CACACA_site6283] | 8.73 ± 0.35

Sequence | gcPBM binding intensity (ln)
ATACATATATATATATGTACATATGTATTTTTTATT [XGTACX_site105] | 8.63 ± 0.38
TTTACATATTTATATACACACTTTTGCGTGCGTGGT [CACACA_site6647] | 8.53 ± 0.55
AATAAAATATATTCCTGTACATATGATTCTTTTTTT [XGTACX_site7980] | 8.55 ± 0.57
GGATAATATATTAGAACACACATATATATGTAAAAA [CACACA_site185] | 8.88 ± 0.35
ATGGAATAATCACGTACACACAAGAAAAAAAAAAAT [CACACA_site527] | 8.8 ± 0.56
ATTACAAATACAAACACACAAATGTTTTTCATTCAA [CACACA_site7639] | 8.22 ± 0.36
TTTTATTTGACAAGCACACACTTAAATATATATATA [CACACA_site5792] | 9.57 ± 0.042
AAACAAAAAATAAAATGTACATTTATTACGATAAGT [XGTACX_site2392] | 9.04 ± 0.34
TATATAAATAAAAAAAGTACATTACTTTTTAATTTA [XGTACX_site285] | 7.9 ± 0.34
ATCATACCTTTTAATGTACACACATTTCTTTTTTGT [CACACA_site8198] | 8.84 ± 0.47
AGAAAGGATATTATATGTACATATCTTTGTATTTTT [XGTACX_site5040] | 8.47 ± 0.28
CATACCCATAAACACACACACATATATACCTATATA [CACACA_site4745] | 8.62 ± 0.49
TTCATTTTATTTTAAGTGCATATTTTTATTTTTTTG | 8.66 ± 0.24
TTTTTAATTCAAAAAACTGTATGTTATATGTCAAAT [CACACA_negctrl_site72] | 8.29 ± 0.39
TAGTATGATAACTTGGGTACATAAATATGGAGTATC [XGTACX_site1296] | 8.82 ± 0.38
AGAATTTAGAAACAATGTTGTATATGTAATACCTTT [XGTACX_negctrl_site149] | 8.35 ± 0.42
TATATATATAAAAAAAGTACGTATTTAATAAAAATA [XGTACX_site4992] | 8.86 ± 0.33
GATATTATGTGTTTGGTATTTCGATCTTGTCAGGAC [CACACA_negctrl_site426] | 8.71 ± 0.52
ATTTCTATATATTGTGCATGCCATTACACCAAATAT [TGCATGCA_site813] | 9.37 ± 0.33
TATATATATAAATACACACACACATATATATATATA [CACACA_site4585] | 10 ± 0.16
